Measured values as given in PubChem BioAssay AID1468 (National Center for Advancing Translational Sciences (NCATS), 2008).
Screen size: about 280,000 compounds; about 1,100 (0.39%) were called active. Inconclusive means that the source gave no clear call. Such entries were picked first, then a sample of the others. Calls follow the shape of the dose curve; as a rule, active = well fitted inhibition curve with a large enough effect; inconclusive = small, poorly fitted or top-dose-only effect, or effect the other way; inactive = flat fitted curve, though single readings scatter. No potency is given beside an inconclusive call; the fits are too rough.

Biological target: Microtubule-associated protein tau (Homo sapiens) (UniProt P10636)
Chain of UniProt P10636 (P10636 whole entry, looked up): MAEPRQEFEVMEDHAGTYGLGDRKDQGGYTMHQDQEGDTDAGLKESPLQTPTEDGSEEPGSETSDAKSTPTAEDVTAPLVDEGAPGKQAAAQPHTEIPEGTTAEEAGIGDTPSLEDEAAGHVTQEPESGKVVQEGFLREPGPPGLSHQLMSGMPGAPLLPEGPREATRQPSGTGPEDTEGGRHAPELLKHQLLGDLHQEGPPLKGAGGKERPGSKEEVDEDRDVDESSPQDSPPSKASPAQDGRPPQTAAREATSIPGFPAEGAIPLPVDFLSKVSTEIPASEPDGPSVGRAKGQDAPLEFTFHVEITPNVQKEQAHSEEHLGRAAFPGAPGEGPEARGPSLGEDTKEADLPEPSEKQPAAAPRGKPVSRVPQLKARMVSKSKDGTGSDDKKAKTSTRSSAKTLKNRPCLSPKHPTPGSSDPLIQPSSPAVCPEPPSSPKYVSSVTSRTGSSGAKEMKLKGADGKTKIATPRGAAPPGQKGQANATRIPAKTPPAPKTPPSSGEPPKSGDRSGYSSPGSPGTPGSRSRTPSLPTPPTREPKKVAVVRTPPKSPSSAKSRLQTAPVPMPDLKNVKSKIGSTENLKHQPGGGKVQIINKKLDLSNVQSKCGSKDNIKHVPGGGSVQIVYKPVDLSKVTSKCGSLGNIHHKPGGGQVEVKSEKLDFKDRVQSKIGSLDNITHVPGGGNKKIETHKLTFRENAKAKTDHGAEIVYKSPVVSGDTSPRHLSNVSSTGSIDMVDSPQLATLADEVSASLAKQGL
Assay: qHTS for Inhibitors of Tau Fibril Formation, Fluorescence Polarization; also: nearly all actives have a fitted effect of over 55% in size
Settings: K18 P301L tau heparin fibrillization, Alexa594 FP, 6 h; series mostly up to 57.7 µM
Summary of the method: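 Compound effects on tau fibrillization are measured by Alexa 594 fluorescence polarization (ex 555, em 632 nm). K18 P301L tau is used at 15 uM with 0.24 uM labeled tracer, and 20 uM heparin induces aggregation over 6 hr at 37 C.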
Potency is read from the fitted curve at half-maximal effect; tags tell the direction and shape of the fitted curve.

| SMILES | Potency |
| --- | --- |
| CCN(CC)CCN(CC(=O)N(C1CCCCC1)C1CCCCC1)C(=O)c1cccnc1 | inactive |
| CCN1CCOC(=O)C1CC(=O)Nc1ccccc1C(F)(F)F (stereo not given) | inconclusive [inhibitor, single point] |
| CCCN(C(=O)C1CCN(S(=O)(=O)c2c(C)noc2/C=C/c2ccc(C)cc2)CC1)c1ccccc1F | inactive |
| O=c1/c(=C\c2cc([N+](=O)[O-])cc([N+](=O)[O-])c2O)sc2nc3ccccc3n12 | inconclusive [inhibitor, partial curve] |
| CC(=O)c1ccc(NC(=O)c2cccc(NC(=O)N3CCSc4ncccc43)c2)cc1 | inconclusive [inhibitor, single point] |
| Cc1cc(C)cc(N(C)S(=O)(=O)c2nnc(NC(=O)COc3ccc(C)c(C)c3)s2)c1 | inactive |
| COc1cc(Nc2nc(-c3ccccc3)c3cc(C)ccc3n2)cc(OC)c1OC | inconclusive [activator, partial curve] |
| COc1cc2oc(-c3ccc(O)cc3)cc(=O)c2c(O)c1OC | inactive |
| Cc1ccccc1OCC1Cn2c(nc3c2c(=O)[nH]c(=O)n3C)O1 (stereo not given) | inactive |
| CCOC(=O)C1=C(c2ccccc2)N=c2s/c(=C\c3ccco3)c(=O)n2C1c1cccs1 (stereo not given) | inconclusive [inhibitor, single point] |
| O=C(N/N=C/c1ccc([N+](=O)[O-])o1)c1cc(-c2cccc(Br)c2)nc2ccccc12 | inconclusive [activator, partial curve] |
| O=c1c(C(c2ccc(O)cc2)c2c(O)nc3n(c2=O)CCCS3)c(O)nc2n1CCCS2 | inactive |
| Cc1[nH]ccc(=O)c1OCc1ccccc1 | inactive |
| CCCCOC(=O)C(C)c1c(C)[nH]c(=S)[nH]c1=O (stereo not given) | inconclusive [inhibitor, full curve] |
| Cc1ccc(Oc2cc(C)nc(-c3ccccc3O)n2)cc1 | inconclusive [inhibitor, partial curve, poor fit] |
| NC(=O)c1c(NC(=O)c2noc3c2CCCC3)sc2c1CCCC2 | inconclusive [inhibitor, partial curve] |
| COC(=O)CC(c1ccc(C(C)C)cc1)n1cccc1 (stereo not given) | inconclusive [inhibitor, single point] |
| Cc1cc(C)c(C)c(S(=O)(=O)Nc2ccccc2C(=O)NCCCN2CCOCC2)c1C | inconclusive [inhibitor, partial curve] |
| Cc1ccc(-c2nc(-c3nccc4ccccc34)oc2-c2ccccc2)cc1 | inconclusive [inhibitor, partial curve] |
| Cc1ccc2[nH]cc(C(c3ccccc3)c3cccs3)c2c1 (stereo not given) | inconclusive [inhibitor, single point] |
| COc1cc(OC)c(NC(=O)c2ccc3nc(C(C)C)oc3c2)cc1Cl | inactive |
| CN(C)c1ccc(N=Nc2ccccc2C(=O)OCC(=O)N(C)c2ccccc2)cc1 | inconclusive [activator, single point] |
| COc1ccccc1N(CC(=O)Nc1cccc(C(F)(F)F)c1)S(C)(=O)=O | inconclusive [inhibitor, single point] |
| Cc1ccc(S(=O)(=O)Nc2cc(C(=O)N3CCOCC3)ccc2N2CCCCC2)cc1 | inactive |

| SMILES | Potency |
| --- | --- |
| O=C(CCc1nc(-c2ccccc2F)no1)Nc1cccc(C(F)(F)F)c1 | inconclusive [inhibitor, partial curve] |
| CC(=O)Nc1ccc(NC2=C/C(=N/S(=O)(=O)c3cccs3)c3ccccc3C2=O)cc1 | inconclusive [inhibitor, full curve, poor fit] |
| O=C(COc1ccc(Cl)cc1)Nc1cc(-c2ccccc2)no1 | inconclusive [inhibitor, partial curve] |
| Cn1c(=O)c2sccc2n2c(CCCC(=O)Nc3ccc(F)cc3F)nnc12 | inactive |
| O=C(Nc1ccc(C(=O)N2CCOCC2)cc1)c1cc(-c2cccnc2)nc2ccc(Cl)cc12 | inconclusive [inhibitor, partial curve] |
| CCc1ccccc1NC(=O)CSc1nnc(-c2cc(OC)c(OC)c(OC)c2)o1 | inconclusive [inhibitor, single point] |
| CCn1c(-c2cc(-c3ccc(OC(C)C)cc3)nc3ccccc23)n[nH]c1=S | inconclusive [inhibitor, single point] |
| Cc1cccc(N2CCN(C(=O)Cn3c(=O)c4cccn4c4ccc(F)cc43)CC2C)c1 (stereo not given) | inactive |
| C=COC(=O)CSc1snc(SCC(=O)OC)c1C#N | inconclusive [inhibitor, single point] |
| CCOC(=O)CCC(=O)Nc1ccc(S(=O)(=O)N2CCCCC2)cc1 | inactive |
| CCOCCCNc1nc2c(c(=O)n(C)c(=O)n2C)n1CCCc1ccccc1 | inactive |
| N#CCCNC(=O)CCN1CCCCC1 | inconclusive [inhibitor, partial curve] |
| [O-]/[N+](=C\c1ccncc1)c1ccccc1 | inconclusive [inhibitor, partial curve, poor fit] |
| O=C(Nc1cc(C(F)(F)F)ccc1Cl)c1cc(S(=O)(=O)NCc2ccccc2)ccc1F | inconclusive [inhibitor, partial curve, poor fit] |
| CC1Cc2ccccc2N1C(=O)CSc1nc(-c2ccccc2)cs1 (stereo not given) | inconclusive [inhibitor, single point] |
| Cc1ccc([N+](=O)[O-])cc1N/C=C1\CCCCC1=O | inactive |
| Oc1ccc(Cl)cc1-c1cc(-c2ccccc2)n[nH]1 | inconclusive [inhibitor, partial curve] |
| O=C(Nc1ccc2ccccc2c1)Nc1ccc2snnc2c1 | active: 11.2 µM |
| COc1ccc(NC(=O)C(Cc2ccccc2)NS(=O)(=O)c2ccc(Br)s2)cc1OC (stereo not given) | inconclusive [activator, single point] |
| CN(Cc1cccs1)C(=O)CCCc1c[nH]c2ccccc12 | inconclusive [activator, single point] |
| Fc1ccc(NC(=S)NCc2cccs2)cc1 | inactive |
| CC(C)CCNC(=O)NC(=O)COc1c(F)c(F)cc(F)c1F | inactive |
| CN(C)S(=O)(=O)c1ccc2c(c1)c(=O)c(C(=O)NCCCN1CCCCCC1)cn2C | inactive |
| Clc1ccc2nc(CN3CCCCC3)cn2c1 | inactive |

| SMILES | Potency |
| --- | --- |
| Cc1ccc(S(=O)(=O)N/N=C/c2cccn2-c2ccc(Cl)cc2)cc1 | inconclusive [activator, partial curve] |
| CCN1C(=O)c2cccc3c(S(=O)(=O)NCc4cccnc4)ccc1c23 | inactive |
| O=c1[nH]c(NNC(=S)NCc2ccccc2)nc2c1C1(CCCCC1)Cc1ccccc1-2 | inconclusive [inhibitor, single point] |
| C/C(=N\N=C(N)N)c1cccc(Cl)c1 | inactive |
| Cc1cc(C)cc(NC(=O)CSCn2nnc3c(=O)[nH]c(Cc4ccc(F)cc4)nc32)c1 | inconclusive [inhibitor, partial curve, poor fit] |
| O=S(=O)(c1ccc(NC(=S)NCc2ccco2)cc1)N1CCCCC1 | inconclusive [inhibitor, partial curve] |
| Cc1ccc(-c2noc(C3CCCN(S(=O)(=O)c4ccc5ccccc5c4)C3)n2)o1 (stereo not given) | inconclusive [inhibitor, partial curve] |
| CC(=O)c1cccc(NC(=O)c2cnn(-c3cccc(C)c3)c2-n2cccc2)c1 | inactive |
| O=C(NCc1csc(-c2cccs2)n1)Nc1cccc(Cl)c1 | inconclusive [inhibitor, partial curve] |
| CC1(C)OC(=O)C(=Cc2ccc[nH]2)C(=O)O1 | inactive |
| C=C1/C(=C\C=C2/CCC[C@]3(C)C([C@H](C)CCCC(C)(C)O)CC[C@@H]23)C[C@@H](O)C[C@@H]1O (stereo not given in full) | inconclusive [activator, partial curve, poor fit] |
| Cc1ccc(NC(=O)CC2C(=O)N(Cc3ccccc3)C(=S)N2NC(=O)c2cccc(F)c2)c(C)c1 (stereo not given) | inconclusive [inhibitor, single point] |
| COc1ccccc1OCC(=O)N(Cc1ccc(N(C)C)cc1)CC1CCCO1 (stereo not given) | inactive |
| Cc1ccc2oc(=O)c3cnn(CC(=O)N(C)c4ccc(F)cc4)c3c2c1 | inactive |
| Cc1cc2nn(-c3cccc4ccccc34)nc2cc1N | inconclusive [activator, partial curve] |
| CCCOc1cccc(C2/C(=C(/O)c3ccncc3)C(=O)C(=O)N2CCCN(C)C)c1 (stereo not given) | inactive |
| Cc1ccc(O)c(-c2cc(-c3cccc(F)c3)n[nH]2)c1 | inconclusive [inhibitor, single point] |
| CC(C)Cn1[nH]c2c3c(ccc2c1=O)C(=O)c1ccccc1C3=O | inactive |
| COc1ccc(-n2cnnc2SCC(=O)c2cc(C)n(Cc3cccs3)c2C)cc1 | inconclusive [inhibitor, partial curve] |
| CCn1c(C)c(C(C)=O)c(N2CCN(c3ccccc3)CC2)nc1=S | inconclusive [inhibitor, single point] |
| CCN(CCNC(=O)C1CCN(S(=O)(=O)c2cccc3nsnc23)CC1)c1ccccc1 | inactive |
| CN(C)S(=O)(=O)c1cccc(-c2csc(N/N=C/c3ccco3)n2)c1 | inconclusive [activator, partial curve, poor fit] |
